{"source": "the supplement of paper PMC3334620", "note": "Over roughly 33,000 sequences, “E-score (-0.5 to 0.5)” has its median near -0.017; the highest 2% begin near 0.3. This is one part of the list."}
{"target": "T1, Sut1 (UniProt P53032)", "T1 sequence": "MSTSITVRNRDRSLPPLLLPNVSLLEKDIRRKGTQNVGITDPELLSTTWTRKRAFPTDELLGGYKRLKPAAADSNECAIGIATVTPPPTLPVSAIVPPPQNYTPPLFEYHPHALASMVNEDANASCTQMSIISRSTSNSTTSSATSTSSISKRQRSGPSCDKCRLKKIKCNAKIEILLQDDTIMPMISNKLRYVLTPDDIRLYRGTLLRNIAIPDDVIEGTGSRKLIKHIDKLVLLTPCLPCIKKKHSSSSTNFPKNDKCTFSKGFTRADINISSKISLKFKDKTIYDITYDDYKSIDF", "test": "PBM E-score (8-mer binding enrichment) (E-score (-0.5 to 0.5)); higher = stronger / more preferred TF binding; most listed sequences are background and not binding sites", "settings": "protein concentration: 200 nM; construct: GST-full length", "method_in_brief": "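E-scores (a modified Wilcoxon-Mann-Whitney statistic) were assigned by the Universal PBM Analysis Suite to every ungapped eight-base word pooled with its reverse complement. The input came from universal all-10-mer Agilent arrays made double-stranded by primer extension and probed with GST-tagged yeast transcription factors at about 100-200 nM. Fluorescent anti-GST detected bound protein, and masliner normalised the scans.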"}
{"sequence": "AGTCTCTG", "PBM E-score": -0.12}
{"sequence": "ATCAAGTC", "PBM E-score": 0.141}
{"sequence": "ACACACCG", "PBM E-score": -0.0964}
{"sequence": "CAGACGTC", "PBM E-score": -0.096}
{"sequence": "CAGAAATC", "PBM E-score": 0.0914}
{"sequence": "CGCGAATA", "PBM E-score": 0.0379}
{"sequence": "ACCCACAG", "PBM E-score": -0.239}
{"sequence": "CGATTTTA", "PBM E-score": 0.162}
{"sequence": "CCGTGAAC", "PBM E-score": -0.137}
{"sequence": "CCTGGTTC", "PBM E-score": -0.07}
{"sequence": "CTATGTCC", "PBM E-score": 0.127}
{"sequence": "AAGGTTCT", "PBM E-score": 0.146}
{"sequence": "ACGATCTC", "PBM E-score": -0.0655}
{"sequence": "ATACGGAC", "PBM E-score": 0.374}
{"sequence": "AAGAAAAC", "PBM E-score": 0.237}
{"sequence": "ATATCGAA", "PBM E-score": 0.128}
{"sequence": "AACAGGCA", "PBM E-score": -0.112}
{"sequence": "CTTACACA", "PBM E-score": 0.012}
{"sequence": "GTCACCCA", "PBM E-score": -0.273}
{"sequence": "GAGCGCCA", "PBM E-score": -0.124}
{"sequence": "CGTTTAGA", "PBM E-score": 0.0198}
{"sequence": "CACCGCAG", "PBM E-score": -0.087}
{"sequence": "ACTCCATA", "PBM E-score": 0.128}
{"sequence": "CGTCGACC", "PBM E-score": -0.0962}
{"sequence": "ATAGCCGC", "PBM E-score": -0.0688}
{"sequence": "ACGGCGCG", "PBM E-score": -0.1}
{"sequence": "CACGTTGG", "PBM E-score": -0.114}
{"sequence": "GTAGCAAC", "PBM E-score": -0.00622}
{"sequence": "AAGACCAG", "PBM E-score": 0.0464}
{"sequence": "AACTACGC", "PBM E-score": 0.0519}
{"sequence": "GTCCACAC", "PBM E-score": 0.00775}
{"sequence": "CTGGAATA", "PBM E-score": 0.101}
{"sequence": "ACTGAGTA", "PBM E-score": -0.0453}
{"sequence": "GATATATC", "PBM E-score": 0.183}
{"sequence": "CGTCTGCC", "PBM E-score": -0.166}
{"sequence": "GCTCGGAC", "PBM E-score": 0.365}
{"sequence": "ATTCTTGC", "PBM E-score": 0.122}
{"sequence": "CGTGGAAA", "PBM E-score": 0.153}
{"sequence": "ACAGCAAA", "PBM E-score": 0.127}
{"sequence": "ACATACAT", "PBM E-score": 0.19}
{"sequence": "CTTGCTCA", "PBM E-score": -0.319}
{"sequence": "AATATGGG", "PBM E-score": -0.186}
{"sequence": "AGAGCATA", "PBM E-score": -0.153}
{"sequence": "CGCAGCAC", "PBM E-score": -0.0502}
{"sequence": "ATAATGCA", "PBM E-score": 0.0682}
{"sequence": "AATCCCGA", "PBM E-score": 0.138}
{"sequence": "ATAGTTCA", "PBM E-score": 0.098}
{"sequence": "ACATTTCA", "PBM E-score": 0.113}
{"sequence": "GCCGGAAC", "PBM E-score": 0.146}
{"sequence": "AGTTGCAT", "PBM E-score": 0.0216}
{"sequence": "ACACCCGG", "PBM E-score": -0.0673}
{"sequence": "GGGGACTA", "PBM E-score": -0.185}
{"sequence": "CTGGTACA", "PBM E-score": -0.111}
{"sequence": "GGGAACCA", "PBM E-score": -0.211}
{"sequence": "GAAAGGCC", "PBM E-score": -0.077}
{"sequence": "CAAAACAG", "PBM E-score": 0.115}
{"sequence": "AAGCCGCA", "PBM E-score": -0.0693}
{"sequence": "ATAGCAGA", "PBM E-score": 0.0126}
{"sequence": "GCTCTCAA", "PBM E-score": 0.057}
{"sequence": "AGCCAAGC", "PBM E-score": -0.147}
{"sequence": "GAAGTCGA", "PBM E-score": 0.0953}
{"sequence": "AACTGTTG", "PBM E-score": -0.0735}
{"sequence": "GATTCCCC", "PBM E-score": -0.15}
{"sequence": "ATGGTTTG", "PBM E-score": 0.0969}
{"sequence": "GAACACCC", "PBM E-score": -0.183}
{"sequence": "GCGACAGA", "PBM E-score": -0.286}
{"sequence": "CTACAAAA", "PBM E-score": 0.267}
{"sequence": "GCAGCTGA", "PBM E-score": -0.0863}
{"sequence": "AATCTTTG", "PBM E-score": 0.116}
{"sequence": "TTGTACAA", "PBM E-score": 0.182}
{"sequence": "AGGTAAAA", "PBM E-score": 0.061}
{"sequence": "GGGTGCCA", "PBM E-score": -0.215}
{"sequence": "TGCTCCCA", "PBM E-score": -0.0682}
{"sequence": "AGCCACCG", "PBM E-score": -0.122}
{"sequence": "CTAGGTCC", "PBM E-score": 0.193}
{"sequence": "AATCGGAG", "PBM E-score": 0.396}
{"sequence": "CTAGATAC", "PBM E-score": 0.0478}
{"sequence": "AAAACTAT", "PBM E-score": 0.231}
{"sequence": "CAAGACAA", "PBM E-score": -0.00391}
{"sequence": "AATTTATC", "PBM E-score": 0.258}
{"sequence": "AGTAAAGA", "PBM E-score": 0.193}
{"sequence": "ACCTGGAC", "PBM E-score": -0.199}
{"sequence": "CTCAGGTA", "PBM E-score": -0.179}
{"sequence": "ACGGCTCC", "PBM E-score": 0.0716}
{"sequence": "GAGGCCTC", "PBM E-score": -0.235}
{"sequence": "ACAACGAC", "PBM E-score": 0.116}
{"sequence": "ATTAATAC", "PBM E-score": 0.179}
{"sequence": "CCTAGGCA", "PBM E-score": -0.15}
{"sequence": "CAGTAAAC", "PBM E-score": 0.101}
{"sequence": "ATGTACTG", "PBM E-score": 0.0119}
{"sequence": "ACGTTAGC", "PBM E-score": -0.0242}
{"sequence": "TAAGGTGA", "PBM E-score": -0.0574}
{"sequence": "AAGTCCTG", "PBM E-score": -0.103}
{"sequence": "ACGCAGGC", "PBM E-score": -0.223}
{"sequence": "CGAAGTAG", "PBM E-score": 0.0818}
{"sequence": "CTTTACGA", "PBM E-score": 0.0369}
{"sequence": "CGGTACCA", "PBM E-score": -0.118}
{"sequence": "ATATTAAA", "PBM E-score": 0.37}
{"sequence": "CCTGAAGC", "PBM E-score": -0.263}
{"sequence": "TGTTAAAA", "PBM E-score": 0.218}
{"sequence": "AAAAAGGA", "PBM E-score": 0.204}
{"sequence": "GGTGAGCA", "PBM E-score": -0.156}
{"sequence": "CATAGCAA", "PBM E-score": 0.0177}
{"sequence": "CTCGTAAG", "PBM E-score": 0.115}
{"sequence": "GCATGTAC", "PBM E-score": -0.201}
{"sequence": "CGGCTGAG", "PBM E-score": -0.165}
{"sequence": "CTCCCGAG", "PBM E-score": -0.264}
{"sequence": "AGCTTATC", "PBM E-score": -0.00535}
{"sequence": "CGAGTGCA", "PBM E-score": -0.0162}
{"sequence": "CCTTACTC", "PBM E-score": 0.0971}
{"sequence": "AGGCGGAT", "PBM E-score": 0.0628}
{"sequence": "GCGGTGGA", "PBM E-score": -0.043}
{"sequence": "CACTTCTC", "PBM E-score": -0.0913}
{"sequence": "ATTGCGAC", "PBM E-score": 0.0862}
{"sequence": "GACTGCCC", "PBM E-score": -0.199}
{"sequence": "GATGGAGC", "PBM E-score": -0.232}
{"sequence": "AAGGCTAA", "PBM E-score": 0.0404}
{"sequence": "ATGAATCG", "PBM E-score": -0.0757}
{"sequence": "GAAAGCAC", "PBM E-score": -0.0213}
{"sequence": "GATTACGA", "PBM E-score": 0.184}
{"sequence": "AGCGGGAC", "PBM E-score": -0.151}
{"sequence": "ACACTTAG", "PBM E-score": -0.0396}
{"sequence": "GCAGTGGA", "PBM E-score": -0.0987}
{"sequence": "CCTGCAGA", "PBM E-score": -0.0521}
{"sequence": "GCGTCGTA", "PBM E-score": 0.109}
{"sequence": "CACAATGC", "PBM E-score": 0.0849}
{"sequence": "AACCGCCC", "PBM E-score": -0.241}
{"sequence": "ACATTCTG", "PBM E-score": -0.0619}
{"sequence": "CAAGAGTC", "PBM E-score": 0.00463}
{"sequence": "CCCAGATC", "PBM E-score": -0.244}
{"sequence": "GTTTGTAA", "PBM E-score": 0.154}
{"sequence": "CAGACAAA", "PBM E-score": 0.0809}
{"sequence": "CACTGGGG", "PBM E-score": -0.262}
{"sequence": "ATGGAAAC", "PBM E-score": 0.00872}
{"sequence": "GCATAACC", "PBM E-score": -0.1}
{"sequence": "ATACCCGG", "PBM E-score": -0.239}
{"sequence": "CCTAACTA", "PBM E-score": 0.132}
{"sequence": "CGCTCCCA", "PBM E-score": -0.0881}
{"sequence": "CTACACAA", "PBM E-score": 0.118}
{"sequence": "GGCACCCA", "PBM E-score": -0.214}
{"sequence": "CCTCCATA", "PBM E-score": -0.235}
{"sequence": "ATAGCCGG", "PBM E-score": 0.104}
{"sequence": "AAAGCGTT", "PBM E-score": 0.063}
{"sequence": "CCCGTAGG", "PBM E-score": -0.295}
{"sequence": "CGAGTTAG", "PBM E-score": 0.0357}
{"sequence": "GACAGGGA", "PBM E-score": -0.166}
{"sequence": "CAGGCGAA", "PBM E-score": -0.158}
{"sequence": "AGCGGGGG", "PBM E-score": -0.335}
{"sequence": "AATAGTAA", "PBM E-score": 0.19}
{"sequence": "ATGGCCCG", "PBM E-score": -0.169}
{"sequence": "AAGGCTCA", "PBM E-score": -0.0689}
{"sequence": "AAGTTGCC", "PBM E-score": 0.0144}
{"sequence": "GCTGACAC", "PBM E-score": -0.0384}
{"sequence": "ACATCATG", "PBM E-score": -0.119}
{"sequence": "AGGGGTCA", "PBM E-score": -0.198}
{"sequence": "CATTCGTA", "PBM E-score": 0.096}
{"sequence": "TACTCTAA", "PBM E-score": 0.0967}
{"sequence": "AGAGCCCT", "PBM E-score": -0.131}
{"sequence": "TGACGGAA", "PBM E-score": 0.111}
{"sequence": "CCTGCAAG", "PBM E-score": -0.293}
{"sequence": "CGAAGACA", "PBM E-score": 0.00531}
{"sequence": "AGGCACTG", "PBM E-score": -0.0816}
{"sequence": "CCACTGGC", "PBM E-score": -0.158}
{"sequence": "GCAAATTA", "PBM E-score": 0.133}
{"sequence": "AACGCGCT", "PBM E-score": 0.0554}
{"sequence": "GCGATAAA", "PBM E-score": 0.0442}
{"sequence": "CGGCGAGC", "PBM E-score": -0.0558}
{"sequence": "ACTGGGAG", "PBM E-score": -0.227}
{"sequence": "GACTAGGA", "PBM E-score": -0.052}
{"sequence": "CGATCAAG", "PBM E-score": 0.0132}
{"sequence": "AGTTACTA", "PBM E-score": 0.0836}
{"sequence": "GAGCAACA", "PBM E-score": -0.0192}
